# Test results taken from PMC4336329 (PLoS ONE, 2015).
# Hit rate of the full screen: of about 310,000 compounds, about 14,000 (4.5%) showed an effect of 50% or more. The effect is printed as a negative number. The list shows a part of the results.
# Target: human ether-à-go-go-related gene (hERG) potassium channel (human, UniProt Q12809)
# Assay: primary screen, population patch clamp on CHO cells stably expressing hERG
# 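Also: peak tail current of the secondary pulse compared with the same well before compound.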
# human ether-à-go-go-related gene (hERG) potassium channel, sequence (Q12809 whole entry, looked up): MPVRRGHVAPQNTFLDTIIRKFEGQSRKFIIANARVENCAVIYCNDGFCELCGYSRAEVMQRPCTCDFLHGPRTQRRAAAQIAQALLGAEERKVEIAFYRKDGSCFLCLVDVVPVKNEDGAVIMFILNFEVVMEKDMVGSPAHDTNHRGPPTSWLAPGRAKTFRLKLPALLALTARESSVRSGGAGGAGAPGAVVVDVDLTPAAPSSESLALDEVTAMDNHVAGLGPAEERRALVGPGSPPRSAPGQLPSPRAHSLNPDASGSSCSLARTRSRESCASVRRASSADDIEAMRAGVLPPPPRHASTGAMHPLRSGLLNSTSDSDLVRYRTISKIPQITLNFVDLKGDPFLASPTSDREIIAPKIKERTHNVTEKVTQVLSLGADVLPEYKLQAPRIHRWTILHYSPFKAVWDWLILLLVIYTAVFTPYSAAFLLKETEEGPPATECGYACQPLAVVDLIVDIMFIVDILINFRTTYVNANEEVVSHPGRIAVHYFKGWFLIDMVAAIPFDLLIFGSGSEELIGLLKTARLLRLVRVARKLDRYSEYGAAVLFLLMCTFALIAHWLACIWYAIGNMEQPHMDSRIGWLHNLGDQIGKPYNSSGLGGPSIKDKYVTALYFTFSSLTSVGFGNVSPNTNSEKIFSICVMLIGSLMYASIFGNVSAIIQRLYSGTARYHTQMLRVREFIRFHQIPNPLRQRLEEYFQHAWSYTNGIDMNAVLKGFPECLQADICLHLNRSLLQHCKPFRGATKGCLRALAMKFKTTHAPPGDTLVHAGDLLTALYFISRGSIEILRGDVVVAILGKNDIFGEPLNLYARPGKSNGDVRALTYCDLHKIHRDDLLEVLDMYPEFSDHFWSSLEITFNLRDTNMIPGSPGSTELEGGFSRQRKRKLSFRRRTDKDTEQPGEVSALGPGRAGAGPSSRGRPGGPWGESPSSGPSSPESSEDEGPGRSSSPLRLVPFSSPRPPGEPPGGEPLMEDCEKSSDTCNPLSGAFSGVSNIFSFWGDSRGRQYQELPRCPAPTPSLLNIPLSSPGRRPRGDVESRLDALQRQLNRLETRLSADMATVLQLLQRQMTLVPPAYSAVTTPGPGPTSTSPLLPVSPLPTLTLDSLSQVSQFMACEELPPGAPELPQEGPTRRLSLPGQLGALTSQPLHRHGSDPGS
row,Compound,"hERG current change (%, negative = inhibition) at 10uM [%]"
1,CC1CC(OC(=O)C(O)c2ccccc2)CC(C)(C)N1C.Cl (stereo not drawn),4.17
2,COc1ccc2c(c1)Cc1sc(NC(=O)c3cccs3)nc1-2,-13.8
3,Cc1onc(-c2ccccc2Cl)c1C(=O)N[C@@H](C)c1ccccc1,-2.24
4,O=c1[nH]c(-c2ccccc2)ncc1Oc1ccccc1,9.07
5,CCOC(=O)C(C(=O)OCC)C(C)(C)/C(C)=N\Nc1ccc([N+](=O)[O-])cc1[N+](=O)[O-],-40.8
6,CC(=O)N1c2ccc(S(=O)(=O)N(C)CC(=O)Nc3cccc(C)c3)cc2CC1C (stereo not drawn),8.43
7,CCN(C(=O)CSc1nc(N)cc(=O)[nH]1)c1c(N)n(Cc2ccccc2)c(=O)[nH]c1=O,2.41
8,CCOC(=O)Nc1c(Cl)n(C)c(=O)n(C)c1=O,11.9
9,CCc1cc(C(=O)N(CCCOC)c2c(N)n(Cc3ccccc3)c(=O)[nH]c2=O)sc1C,-31.1
10,O=C(O)c1cc(-c2ccc(/C=C3\NC(=O)N(c4ccccc4)C3=O)o2)ccc1Cl,1.61
11,C/C(N)=C(/C#N)C(=O)COC(=O)c1cc(-c2ccc(Br)cc2)nc2ccccc12,25.4
12,COC(=O)c1sccc1S(=O)(=O)NC(C)c1cnn(-c2ccc(OC)cc2)c1C (stereo not drawn),2.98
13,COc1cc(OC)c(OC)cc1CNc1cc(C)ccc1OC,-15.4
14,CCOC(=O)c1ccc(NC(=O)CCNS(=O)(=O)c2cc(Br)cnc2N)cc1,9.89
15,Cc1ccc(S(=O)(=O)Oc2ccc(C3C4=C(CCCC4=O)OC4=C3C(=O)CCC4)cc2)cc1,-3.78
16,CC1CCCN(Cc2ccc(OCc3ccccc3)cc2)C1 (stereo not drawn),-43.3
17,O=c1o[nH]c(-c2ccccc2)c1N=Nc1c(F)cccc1Cl,14.2
18,Cc1cc(NC(=O)CCCn2cnc([N+](=O)[O-])n2)no1,1.48
19,O=C(NCc1cccnc1)c1ccc(CS(=O)(=O)c2ccc(Cl)cc2)o1,-10.3
20,Nc1cc(C(=O)O)ccc1N1CCCCCC1,8.56
21,O=[N+]([O-])c1cccc(/C=N/NC2=NCCCCC2)c1,-83
22,Cn1c(CN2CCN(C(=O)c3ccccc3Cl)CC2)nc2cc([N+](=O)[O-])ccc21,-70.7
23,COc1cc2[nH]c(=S)n(Cc3ccc(F)cc3)c(=O)c2cc1OC,20.8
24,Cc1ccc(C(=O)Nc2ccc(-n3ccnc3P(=O)([O-])c3ccccc3)cc2)cc1.[K+],13.4
25,Cc1ccc(S(=O)(=O)N(C(=O)c2ccncc2)c2ccc(OC(=O)c3ccncc3)c3ccccc23)c(C)c1,-23.2
26,CCOC(=O)COc1cc2c3c(c(=O)oc2cc1C)CCCC3,-1.76
27,Cc1ccc(CNC(=O)c2csc3c2CCCCC3)cc1,2.19

row,Compound,"hERG current change (%, negative = inhibition) at 10uM [%]"
1,CC1CCN(c2ccccc2NC(=S)NC(=O)c2ccco2)CC1,5.64
2,CC1=NN(Cc2c(C)nn(Cc3ccccc3)c2C)C(C)(C)C1,11.2
3,CCCc1nc2sc3c(c2c(=O)[nH]1)CCCC3,9.15
4,Cc1ccc(C)c(NC(=O)NNC(=O)CCc2ccccc2)c1,1.13
5,CC(=O)O[C@H]1C(=O)[C@@]2(C)C([C@H](OC(=O)c3ccccc3)[C@]3(O)C[C@H](OC(=O)[C@H](O)[C@@H](NC(=O)c4ccccc4)c4ccccc4)C(C)=C1C3(C)C)[C@]1(OC(C)=O)CO[C@@H]1C[C@H]2O (stereo partly drawn),13.1
6,CC(Nc1ccc2c(c1)OCCO2)C(=O)N1CCc2ccccc21 (stereo not drawn),15.3
7,Cc1cccc2c1CC(C)(C)N=C2C1=C(O)CCCC1=O,3.81
8,Cc1cccc(C(=O)NNC(=O)c2ccccc2-n2cccc2)c1,11.7
9,O=c1c2c(-c3cccs3)csc2ncn1-n1cccc1,-2.65
10,CCOc1cc(C=C(C#N)C#N)ccc1Oc1ccc([N+](=O)[O-])cn1,16.1
11,CCOC(=O)C1CCCN(CCC(=O)Nc2c(C(=O)OC)[nH]c3cc(OC)ccc23)C1 (stereo not drawn),-59.6
12,COc1ccc(CCNC(=O)c2cc3ccccc3oc2=O)cc1,34.1
13,O=C(Nc1nc(-c2ccccc2)cs1)C1CCCCN1S(=O)(=O)c1ccc(Cl)cc1 (stereo not drawn),16
14,COc1cc(/C=N/n2cnnc2)ccc1OCc1ccc(C)cc1,-2.99
15,CSc1nc2cc(Cl)ccc2s1,9.34
16,Nc1c(-c2nn[nH]n2)cnn1-c1cc(Cl)cc(Cl)c1,7.84
17,COc1cc(C2C(C#N)=C(SC)NC3=C2C(=O)CCC3)ccc1O (stereo not drawn),10.9
18,O=C(c1c(Cl)nc2sccn12)N(C(=O)c1c(Cl)nc2sccn12)c1ccc(Cl)cn1,-19.8
19,O=C(COC(=O)C12CC3CC(CC(O)(C3)C1)C2)Nc1ccc(Cl)cc1F,-0.0996
20,CCc1ccc(NC(=O)COn2nnc3ccc(S(=O)(=O)N(C)C)cc32)cc1,-29.1
21,CCOc1ccc(C(=S)N2CCOCC2)cc1OCC,-6.45
22,COc1cccc(C(=O)NCCNC(=O)c2ccc(C)nc2)c1,18.1
23,O=S(=O)(c1cccc(-c2n[nH]c(=S)n2C2CCCC2)c1)N1CCOCC1,15.8
24,COC(=O)Cc1[nH]n(-c2nc3ccccc3s2)c(=O)c1C(C)=Nc1ccc(Cl)cc1,-45.9
25,CCOC(=O)c1ccc(N2C(=O)CC(N3CCC(C#N)(c4ccccc4)CC3)C2=O)cc1 (stereo not drawn),11.1
26,Cc1nc(N2CCOCC2)c2c3c(sc2n1)CCC3,10.4
27,O=C1NC2(CCCCCC2)C(=O)N1Cc1ccc(Br)cc1,4.06
